Results published in PubChem BioAssay (NCI).
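These data come from cells grown in 96-well plates and exposed to compound for 48 hours at five concentrations. The concentration for 50% growth inhibition is given as GI50. At the TGI there is no net growth.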

test system: NCI-H322M lung; assay: inhibition of tumour cell growth, NCI panel, 48 h

**Q.** For `CC/C(=C(\c1ccc(O)cc1)c1ccc(OCCN(C)C(=O)COCCNC(=O)Cc2ccc3c(c2)CN([C@@H]2CCC(=O)NC2=O)C3=O)cc1)c1ccccc1`, which GI50 is on record?
**A.** Its GI50 is 1.8 µM.

**Q.** And the TGI?
**A.** The TGI was greater than 51.3 µM.

**Q.** For `COc1cccc(COc2ccc(/C=C3\Oc4cc(O)ccc4C3=O)cc2)c1`, which GI50 is on record?
**A.** The GI50 was greater than 100 µM.

**Q.** And the TGI?
**A.** Its TGI is greater than 100 µM.

**Q.** `COc1nc(N)ncc1-c1ccc2ncnc(N3CCc4cc(F)c(Cl)cc43)c2c1` was tested. Which GI50 did it give?
**A.** The GI50 was 1.31 µM.

**Q.** And the TGI?
**A.** Its TGI is 7.79 µM.

**Q.** `O=c1cc(-c2ccccc2)oc2cc(OCCCNCc3ccccc3)cc(O)c12` was tested. Which GI50 did it give?
**A.** Its GI50 is 6.93 µM.

**Q.** And the TGI?
**A.** Its TGI is 21.8 µM.

**Q.** For `C/C(=N\N=C\c1ccc(Cl)c([N+](=O)[O-])c1)c1ccc2c(c1)Nc1ccccc1S2`, which GI50 is on record?
**A.** Its GI50 is 16.7 µM.

**Q.** And the TGI?
**A.** Its TGI is greater than 100 µM.

**Q.** `Cc1ccc2nc(COc3ccc(C(=O)NNC(=O)Nc4ccc(Cl)c(C(F)(F)F)c4)cc3)[nH]c2c1` was tested. Which GI50 did it give?
**A.** Its GI50 is 4.21 µM.

**Q.** And the TGI?
**A.** Its TGI is 68.2 µM.
